Measured values reported in article PMC12847741.
No constants are given. Whether binding was seen depends on the method and setting. In cells and extracts the contact can be indirect. Some results given as binding are weak or reduced against the parent protein; the word gives no strength. For some of these results: Where a sequence is shown, tags or fusion partners need not be part of it. Blank lines part the entries; values can stand above or below the molecule they belong to.

The chains behind the UniProt entries cited, without tags or fusion partners.
UniProt P05556: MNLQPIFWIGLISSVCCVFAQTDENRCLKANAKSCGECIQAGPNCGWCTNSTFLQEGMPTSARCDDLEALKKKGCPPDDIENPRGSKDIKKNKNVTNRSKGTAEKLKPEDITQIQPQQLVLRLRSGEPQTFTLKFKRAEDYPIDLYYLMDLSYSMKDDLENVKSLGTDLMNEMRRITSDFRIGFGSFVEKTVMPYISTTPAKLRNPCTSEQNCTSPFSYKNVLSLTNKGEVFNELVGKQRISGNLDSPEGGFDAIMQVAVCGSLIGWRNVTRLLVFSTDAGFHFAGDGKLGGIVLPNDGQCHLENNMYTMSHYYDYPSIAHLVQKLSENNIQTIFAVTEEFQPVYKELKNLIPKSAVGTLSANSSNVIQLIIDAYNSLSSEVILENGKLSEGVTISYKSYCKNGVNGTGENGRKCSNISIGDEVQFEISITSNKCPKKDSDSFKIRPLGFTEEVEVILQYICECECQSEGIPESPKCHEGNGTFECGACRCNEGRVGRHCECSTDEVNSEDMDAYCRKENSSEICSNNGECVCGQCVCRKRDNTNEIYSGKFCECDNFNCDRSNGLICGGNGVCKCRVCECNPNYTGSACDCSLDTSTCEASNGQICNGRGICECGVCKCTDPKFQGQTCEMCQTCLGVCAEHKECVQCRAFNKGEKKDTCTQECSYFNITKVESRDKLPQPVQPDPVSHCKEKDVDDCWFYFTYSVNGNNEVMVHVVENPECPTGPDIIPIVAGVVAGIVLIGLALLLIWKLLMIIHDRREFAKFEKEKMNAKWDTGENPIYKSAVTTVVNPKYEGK
UniProt Q9Y490: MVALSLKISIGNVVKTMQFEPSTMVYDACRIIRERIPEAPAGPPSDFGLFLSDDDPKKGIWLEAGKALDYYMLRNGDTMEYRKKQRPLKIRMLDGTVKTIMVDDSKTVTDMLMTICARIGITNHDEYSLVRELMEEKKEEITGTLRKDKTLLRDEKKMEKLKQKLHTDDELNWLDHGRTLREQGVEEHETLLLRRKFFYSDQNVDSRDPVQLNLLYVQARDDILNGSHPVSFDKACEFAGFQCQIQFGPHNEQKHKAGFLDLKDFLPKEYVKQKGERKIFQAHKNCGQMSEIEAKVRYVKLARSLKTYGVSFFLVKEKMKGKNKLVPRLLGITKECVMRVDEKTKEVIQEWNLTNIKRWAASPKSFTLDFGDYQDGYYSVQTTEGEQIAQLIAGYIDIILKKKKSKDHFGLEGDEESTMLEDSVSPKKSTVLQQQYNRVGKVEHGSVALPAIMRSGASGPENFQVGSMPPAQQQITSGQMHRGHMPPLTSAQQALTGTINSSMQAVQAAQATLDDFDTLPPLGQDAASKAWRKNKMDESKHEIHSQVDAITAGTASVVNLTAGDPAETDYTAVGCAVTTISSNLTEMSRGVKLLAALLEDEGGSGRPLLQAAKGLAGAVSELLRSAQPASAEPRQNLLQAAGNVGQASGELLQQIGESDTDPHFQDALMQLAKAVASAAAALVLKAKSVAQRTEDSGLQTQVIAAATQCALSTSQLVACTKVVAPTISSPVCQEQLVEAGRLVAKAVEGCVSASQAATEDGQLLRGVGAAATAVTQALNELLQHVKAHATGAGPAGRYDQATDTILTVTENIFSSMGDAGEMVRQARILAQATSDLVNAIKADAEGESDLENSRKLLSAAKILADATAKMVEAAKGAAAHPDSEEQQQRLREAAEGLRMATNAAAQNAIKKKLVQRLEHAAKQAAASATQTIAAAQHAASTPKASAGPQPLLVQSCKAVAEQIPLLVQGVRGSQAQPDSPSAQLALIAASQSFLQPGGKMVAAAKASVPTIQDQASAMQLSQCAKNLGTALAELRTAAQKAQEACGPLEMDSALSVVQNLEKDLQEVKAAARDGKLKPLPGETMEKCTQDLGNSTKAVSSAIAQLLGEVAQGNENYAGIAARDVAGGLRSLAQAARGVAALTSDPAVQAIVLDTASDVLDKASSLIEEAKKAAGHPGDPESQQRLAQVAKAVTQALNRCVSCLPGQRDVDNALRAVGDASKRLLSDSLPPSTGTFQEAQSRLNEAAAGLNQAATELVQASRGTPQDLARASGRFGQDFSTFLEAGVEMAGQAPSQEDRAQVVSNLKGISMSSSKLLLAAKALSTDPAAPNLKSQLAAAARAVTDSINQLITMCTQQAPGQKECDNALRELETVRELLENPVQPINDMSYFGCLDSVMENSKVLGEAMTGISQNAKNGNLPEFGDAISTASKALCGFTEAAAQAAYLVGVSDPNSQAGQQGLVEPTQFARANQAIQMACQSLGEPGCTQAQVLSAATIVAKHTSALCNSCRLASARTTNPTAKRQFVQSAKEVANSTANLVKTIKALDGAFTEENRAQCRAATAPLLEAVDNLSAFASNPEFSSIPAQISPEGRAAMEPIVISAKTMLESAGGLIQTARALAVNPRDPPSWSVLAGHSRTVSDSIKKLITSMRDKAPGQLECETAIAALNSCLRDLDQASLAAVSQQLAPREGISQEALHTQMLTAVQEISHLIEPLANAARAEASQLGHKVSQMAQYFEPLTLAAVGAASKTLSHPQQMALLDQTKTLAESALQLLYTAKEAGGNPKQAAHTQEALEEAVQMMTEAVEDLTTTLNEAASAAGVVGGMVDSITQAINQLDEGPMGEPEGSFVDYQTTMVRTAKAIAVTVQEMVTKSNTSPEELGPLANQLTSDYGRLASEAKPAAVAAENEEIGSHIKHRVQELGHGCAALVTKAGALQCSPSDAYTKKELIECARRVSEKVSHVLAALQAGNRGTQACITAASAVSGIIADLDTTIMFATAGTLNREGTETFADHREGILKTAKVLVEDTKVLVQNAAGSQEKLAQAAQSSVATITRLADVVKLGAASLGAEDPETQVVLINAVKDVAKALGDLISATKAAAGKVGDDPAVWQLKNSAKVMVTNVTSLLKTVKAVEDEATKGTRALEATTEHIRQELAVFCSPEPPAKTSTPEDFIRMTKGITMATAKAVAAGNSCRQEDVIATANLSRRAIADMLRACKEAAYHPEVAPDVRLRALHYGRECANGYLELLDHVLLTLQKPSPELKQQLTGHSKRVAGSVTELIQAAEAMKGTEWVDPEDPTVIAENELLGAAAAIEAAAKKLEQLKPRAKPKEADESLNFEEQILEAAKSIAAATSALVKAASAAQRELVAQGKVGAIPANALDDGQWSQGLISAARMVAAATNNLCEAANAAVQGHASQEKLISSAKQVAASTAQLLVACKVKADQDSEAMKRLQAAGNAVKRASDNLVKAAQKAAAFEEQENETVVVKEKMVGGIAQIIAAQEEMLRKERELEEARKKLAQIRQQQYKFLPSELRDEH

How the values were obtained:
[1] = target: Integrin β1, endogenous (human (endogenous in ESCC cells)) (UniProt P05556); experiment: co-IP; endogenous proteins from ESCC cells transfected with IFIT3^Flag or Vector plasmid, or shRNA IFIT3 or shRNA-NC plasmid; also KYSE410^shLASP1 cells with IFIT3 and LASP1 overexpressed
[2] = target: T1, IFIT3, endogenous (human (endogenous in KYSE150)) (UniProt O14879); experiment: co-IP; IP and immunoblot of exogenous IFIT3 (KYSE410) or endogenous IFIT3 (KYSE150) and endogenous LASP1 from cell extracts; IgG as negative control
T1 sequence: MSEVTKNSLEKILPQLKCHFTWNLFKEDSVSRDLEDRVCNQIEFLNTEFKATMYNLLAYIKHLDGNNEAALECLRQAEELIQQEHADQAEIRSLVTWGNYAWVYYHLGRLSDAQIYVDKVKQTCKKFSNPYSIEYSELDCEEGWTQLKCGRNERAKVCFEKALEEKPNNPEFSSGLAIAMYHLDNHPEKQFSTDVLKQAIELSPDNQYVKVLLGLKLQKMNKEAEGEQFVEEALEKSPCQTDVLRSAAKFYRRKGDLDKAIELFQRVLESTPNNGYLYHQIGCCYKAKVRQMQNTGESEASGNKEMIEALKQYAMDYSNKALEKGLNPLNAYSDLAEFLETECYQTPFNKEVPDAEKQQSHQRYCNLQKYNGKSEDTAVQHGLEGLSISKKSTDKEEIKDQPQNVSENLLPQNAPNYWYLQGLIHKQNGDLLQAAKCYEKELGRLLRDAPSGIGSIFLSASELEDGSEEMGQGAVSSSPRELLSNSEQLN

[3] = target: T2, Flag-tagged IFIT3 (interferon-induced protein with tetratricopeptide repeats 3), full-length (human) (UniProt O14879); experiment: as above
T2 sequence: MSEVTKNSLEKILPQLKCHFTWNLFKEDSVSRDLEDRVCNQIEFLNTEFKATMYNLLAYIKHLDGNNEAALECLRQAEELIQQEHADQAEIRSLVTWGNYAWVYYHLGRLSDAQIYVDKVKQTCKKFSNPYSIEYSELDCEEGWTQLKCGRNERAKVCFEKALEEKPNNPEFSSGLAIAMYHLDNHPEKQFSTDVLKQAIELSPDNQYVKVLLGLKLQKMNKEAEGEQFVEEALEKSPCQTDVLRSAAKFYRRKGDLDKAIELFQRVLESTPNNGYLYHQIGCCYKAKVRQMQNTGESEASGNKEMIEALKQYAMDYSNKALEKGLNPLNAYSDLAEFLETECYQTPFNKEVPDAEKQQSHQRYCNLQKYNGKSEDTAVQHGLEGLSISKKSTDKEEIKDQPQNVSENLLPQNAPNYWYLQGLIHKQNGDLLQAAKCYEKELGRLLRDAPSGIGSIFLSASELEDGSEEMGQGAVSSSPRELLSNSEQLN

[4] = target: Talin1, endogenous (human (endogenous in ESCC cells)) (UniProt Q9Y490); experiment: co-IP; endogenous proteins from ESCC cells transfected with IFIT3^Flag or Vector plasmid, or shRNA IFIT3 or shRNA-NC plasmid; also KYSE410^shLASP1 cells with IFIT3 and LASP1 overexpressed
[5] = target: T2, Flag-tagged IFIT3 (interferon-induced protein with tetratricopeptide repeats 3), full-length (human); experiment: co-IP; 293T (HEK293T) cells transfected with IFIT3-Flag and LASP1-HA plasmids
[6] = target: T3, Flag-tagged C-terminal IFIT3 (ΔN, 281-490 aa) (human) (UniProt O14879); experiment: co-IP; HA-tagged LASP1 with Flag-tagged IFIT3 or its deletion mutants; anti-HA or anti-Flag immunoprecipitation, anti-FLAG/HA immunoblots; cells not given
T3 sequence: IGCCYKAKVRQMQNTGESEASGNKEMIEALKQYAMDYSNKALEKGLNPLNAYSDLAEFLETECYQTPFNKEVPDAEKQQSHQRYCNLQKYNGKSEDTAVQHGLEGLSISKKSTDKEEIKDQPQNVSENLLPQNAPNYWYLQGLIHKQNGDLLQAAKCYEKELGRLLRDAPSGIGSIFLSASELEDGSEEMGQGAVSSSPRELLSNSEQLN

[7] = target: T4, Flag-tagged N-terminal IFIT3 (ΔC, 1-280 aa) (human) (UniProt O14879); experiment: as above
T4 sequence: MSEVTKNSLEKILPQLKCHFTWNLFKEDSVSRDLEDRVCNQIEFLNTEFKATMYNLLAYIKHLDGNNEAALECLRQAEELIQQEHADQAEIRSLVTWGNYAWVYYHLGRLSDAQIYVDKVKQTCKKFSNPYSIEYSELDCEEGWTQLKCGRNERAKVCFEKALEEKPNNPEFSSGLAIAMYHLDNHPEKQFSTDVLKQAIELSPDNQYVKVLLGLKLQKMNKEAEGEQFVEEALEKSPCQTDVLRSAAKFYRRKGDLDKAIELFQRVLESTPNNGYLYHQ

- binding [1]: binds
Molecule: Talin1, endogenous (from UniProt Q9Y490 1-2541)

- binding [2]: binds
- binding [3]: binds
- binding [4]: binds
B1: LIM and SH3 protein 1 (LASP1), endogenous (protein, UniProt Q14847 1-261)
chain: MNPNCARCGKIVYPTEKVNCLDKFWHKACFHCETCKMTLNMKNYKGYEKKPYCNAHYPKQSFTMVADTPENLRLKQQSELQSQVRYKEEFEKNKGKGFSVVADTPELQRIKKTQDQISNIKYHEEFEKSRMGPSGGEGMEPERRDSQDGSSYRRPLEQQQPHHIPTSAPVYQQPQQQPVAQSYGGYKEPAAPVSIQRSAPGGGGKRYRAVYDYSAADEDEVSFQDGDTIVNVQQIDDGWMYGTVERTGDTGMLPANYVEAI

- binding [5]: binds
- binding [6]: no binding
- binding [7]: binds
B2: HA-tagged LASP1 (protein, UniProt Q14847 1-261)
chain: MNPNCARCGKIVYPTEKVNCLDKFWHKACFHCETCKMTLNMKNYKGYEKKPYCNAHYPKQSFTMVADTPENLRLKQQSELQSQVRYKEEFEKNKGKGFSVVADTPELQRIKKTQDQISNIKYHEEFEKSRMGPSGGEGMEPERRDSQDGSSYRRPLEQQQPHHIPTSAPVYQQPQQQPVAQSYGGYKEPAAPVSIQRSAPGGGGKRYRAVYDYSAADEDEVSFQDGDTIVNVQQIDDGWMYGTVERTGDTGMLPANYVEAI
